{"source": "PubChem BioAssay AID1347073", "about": "(National Center for Advancing Translational Sciences (NCATS), 2019)", "note": "About 200 (0.44%) of roughly 45,000 compounds were called active. Inconclusive results (about 7%) are left out. Calls follow the shape of the dose curve; as a rule, active = well fitted activation curve with a large enough effect; inconclusive = small, poorly fitted or top-dose-only effect; inactive = no such curve, though single readings can be large or run the other way. The list shows a part of the results. Potency is read from the fitted curve at half-maximal effect."}
{"test": "qHTS of TDP-43 Inhibitors: NCGC Sytravon Library Screen; also: nearly all actives have a fitted effect of over 55% in size; as to growth rescue (activation): 0% is about no effect", "conditions": "yeast TDP-43 toxicity rescue, BacTiter-Glo growth, 24 h; series mostly up to 46.1 µM; growth rescue (activation): at the top concentration", "method_in_brief": "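TDP-43-expressing yeast, pregrown in raffinose, seeded at OD600 0.02 in galactose medium with compound for 24 hr at 30 deg C. Growth read by BacTiter-Glo luminescence, so rescue of toxicity appears as activation.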"}
{"smiles": "O=C(/C=C/c1ccc2c(c1)OCO2)NCc1ccc(F)cc1", "growth rescue (activation)": "inactive: -6.79%"}
{"smiles": "COc1ccc(OCC(=O)O/N=C(\\N)c2ccc(OC)c(OC)c2)cc1", "growth rescue (activation)": "inactive: 29.6%"}
{"smiles": "COc1ccccc1CN(Cc1cccnc1)S(=O)(=O)c1ccc(-n2cnnn2)c(OC)c1", "growth rescue (activation)": "inactive: 18.9%"}
{"smiles": "COc1ccccc1-c1nc(SCC(=O)Nc2ccccc2)n[nH]1", "growth rescue (activation)": "inactive: 0.83%"}
{"smiles": "COc1ccc(NC(=O)C/C(C)=N/NC(=O)c2ccccn2)c(OC)c1", "growth rescue (activation)": "inactive: 12.4%"}
{"smiles": "CN1c2ccsc2/C(=N/Nc2ccccc2)CS1(=O)=O", "growth rescue (activation)": "inactive: -12%"}
{"smiles": "CC(C)(C)c1ccc(-c2nc(NC(=O)CSc3ncnc4sc5c(c34)CCCC5)ns2)cc1", "growth rescue (activation)": "inactive: -4.03%"}
{"smiles": "CC1=Nc2ccccc2N=C(NC(=O)CSC(=S)N2CCCCC2)C1c1ccccc1", "note": "(centres undefined)", "growth rescue (activation)": "inactive: -6.91%"}
{"smiles": "CN(C)N1C(N)=C(C#N)C(c2ccc(F)cc2)C2=C1CCCC2=O", "note": "(centres undefined)", "growth rescue (activation)": "inactive: 2.19%"}
{"smiles": "CCNC(=O)C1(C)CCCN(C(=O)CCc2cccs2)C1", "note": "(centres undefined)", "growth rescue (activation)": "inactive: 5.25%"}
{"smiles": "Cc1cccc(C)c1OCc1cc(C(=O)N2CCC[C@H]2C(N)=O)no1", "growth rescue (activation)": "inactive: 13.6%"}
{"smiles": "O=C(CSC1=NC(=O)C(Cc2ccccc2)C(=O)N1)Nc1ncc(Br)cc1Br", "note": "(centres undefined)", "growth rescue (activation)": "inactive: 6.45%"}
{"smiles": "Cc1ccc(C2C(C#N)=C(N)N(c3cccnc3)C3=C2C(=O)CCC3)c(C)c1", "note": "(centres undefined)", "growth rescue (activation)": "inactive: -8.92%"}
{"smiles": "CCc1ccccc1NC(=O)CNCC(=O)Nc1ccccc1CC", "growth rescue (activation)": "inactive: -17.6%"}
{"smiles": "Cc1ccc(NC(=O)COC(=O)Cc2csc(-c3cccc(F)c3)n2)cc1C", "growth rescue (activation)": "inactive: -29.4%"}
{"smiles": "Cc1cccc(C)c1NC(=O)c1ccc2sc([C@H]3C[C@H](O)[C@@H](CO)O3)nc2c1", "growth rescue (activation)": "inactive: 5.04%"}
{"smiles": "COCCNC(=O)C(c1ccncc1)N(Cc1ccccc1)C(=O)Cn1nnc2ccccc21", "note": "(centres undefined)", "growth rescue (activation)": "inactive: -0.584%"}
{"smiles": "Cc1ccc2c(c1)N(CCCC(=O)Nc1cccc(C(F)(F)F)c1)C(=O)CO2", "Potency": "inactive"}
{"smiles": "COC(=O)c1ccc(N2CCN(C)CC2)c(NC(=O)COc2cccc(C)c2)c1", "growth rescue (activation)": "inactive: 11.4%"}
{"smiles": "O=C(N/N=C\\c1ccc(-c2cccc(Cl)c2)o1)C(=O)NC1CCCC1", "growth rescue (activation)": "inactive: -0.464%"}
{"smiles": "CCN(Cc1cccs1)C(=O)CN1CCN(S(=O)(=O)c2ccc3c(c2)OCCCO3)CC1", "growth rescue (activation)": "inactive: 26.3%"}
{"smiles": "CCC1(CC)Cc2ccccc2-c2nc(CN(C)C)[nH]c(=O)c21", "growth rescue (activation)": "inactive: -9.66%"}
{"smiles": "O=C(O)c1ccccc1CSc1nnc2c(n1)[nH]c1ccccc12", "growth rescue (activation)": "inactive: 5.14%"}
{"smiles": "O=C(CCCC(=O)N(CC(=O)NC1CCCC1)c1cccc(F)c1)Nc1ccccn1", "growth rescue (activation)": "inactive: 8.89%"}
{"smiles": "COCCNC(=O)C1Cc2c(-c3cccc(NC(C)=O)c3)ccnc2O1", "note": "(centres undefined)", "growth rescue (activation)": "inactive: 17.7%"}
{"smiles": "Cc1cc(C)n2nc(SCC(=O)N3CCCC(C)C3)nc2n1", "note": "(centres undefined)", "growth rescue (activation)": "inactive: 10.9%"}
{"smiles": "CN(C(=O)COC(=O)C12CC3CC(CC(Cl)(C3)C1)C2)c1ccccc1", "growth rescue (activation)": "inactive: -1.54%"}
{"smiles": "Cn1nccc1-c1coc2c(C(=O)NCC3CCOCC3)cccc12", "growth rescue (activation)": "inactive: 7.38%"}
{"smiles": "O=S(=O)(c1ccccc1)N(CC1CO1)c1cccc2ccccc12", "note": "(centres undefined)", "growth rescue (activation)": "inactive: 9.35%"}
{"smiles": "CCN1CCN(c2ncc(C(=O)Nc3cc(Cl)c(OC)cc3OC)c3ccccc23)CC1", "growth rescue (activation)": "inactive: -26.6%"}
{"smiles": "CCOC(=O)C1CCCN(C(=O)c2cc(Nc3ccc(OC)c(OC)c3)nc3ccccc23)C1", "note": "(centres undefined)", "growth rescue (activation)": "inactive: 15.5%"}
{"smiles": "CC(C)(C)NCc1cc(Br)ccc1OC1CCCC1", "growth rescue (activation)": "inactive: -7.78%"}
{"smiles": "COc1ccc(NC(=O)c2cc3c(=O)n4ccccc4nc3n2C)cc1OC", "growth rescue (activation)": "inactive: -3.64%"}
{"smiles": "O=C(NCc1cccc(Cl)c1)c1ccc(-n2ccnc2)c2ccoc12", "growth rescue (activation)": "inactive: -9.77%"}
{"smiles": "Cn1c(N2CCOCC2)cc(=O)n(C)c1=O", "growth rescue (activation)": "inactive: 16.6%"}
{"smiles": "CN(C)c1ccc(NC2=C(Cl)C(=O)c3ccccc3C2=O)cc1", "growth rescue (activation)": "inactive: 3.39%"}
{"smiles": "Cc1cc[n+](C2=C([O-])c3ccccc3C(=O)/C2=N\\S(=O)(=O)c2cccs2)cc1C", "growth rescue (activation)": "inactive: -13.7%"}
{"smiles": "COc1ccc(-c2coc3c(C(=O)NC4CCCCC4)cccc23)c(C)c1", "growth rescue (activation)": "inactive: 21.5%"}
{"smiles": "COc1cc(SC)ccc1C(=O)Nc1cc(C)c(OCC(=O)N2CCOCC2)c(C)c1", "growth rescue (activation)": "inactive: -0.421%"}
{"smiles": "CCOc1cc(/C=C2\\C(=O)N(Cc3ccco3)C(C)=C2C(=O)OC)ccc1O", "growth rescue (activation)": "inactive: -2.09%"}
{"smiles": "CCN(CC(=O)NC(C)(C)C)Cc1nc2c(Br)cc(Br)cc2c(=O)[nH]1", "growth rescue (activation)": "inactive: 6.43%"}
{"smiles": "C=CCN(Cc1cn(C)nc1-c1cccc(Cl)c1)C1CCS(=O)(=O)C1", "note": "(centres undefined)", "growth rescue (activation)": "inactive: 3.02%"}
{"smiles": "COc1cc(/C=N/NC(=O)c2cccc(NC(=O)c3ccccc3C)c2)ccc1O", "growth rescue (activation)": "inactive: 14.2%"}
{"smiles": "Cc1ccc2c(c1)N(CCC(=O)NCCCN1CCCC1)C(=O)CO2", "growth rescue (activation)": "inactive: 8.41%"}
{"smiles": "C/C(=C\\C(=S)Nc1ccccc1)Nc1ccc2ccccc2c1", "Potency": "active: 14.1 µM"}
{"smiles": "O=C(Cc1ccccc1F)NNC(=O)c1cccs1", "growth rescue (activation)": "inactive: 2.62%"}
{"smiles": "N=C1/C(=C/c2coc3ccccc3c2=O)C(=O)N=C2SC(c3ccco3)=NN12", "growth rescue (activation)": "inactive: -93.7%"}
{"smiles": "COc1cc(/C=C2/C(=O)NN(c3cccc(C)c3)C2=O)ccc1OC(=O)c1ccco1", "growth rescue (activation)": "inactive: -5.2%"}
{"smiles": "C=CCN(CC=C)CCOc1ccc(OC(C)C)cc1", "growth rescue (activation)": "inactive: 0.848%"}
{"smiles": "CCOC(=O)CN1C(=O)S/C(=C/c2ccc(OCc3ccc(C(=O)O)cc3)cc2)C1=O", "growth rescue (activation)": "inactive: 17.3%"}
{"smiles": "COC(=O)C1=C(C(=O)c2ccccc2)C(c2ccccc2)n2nnnc2N1", "note": "(centres undefined)", "growth rescue (activation)": "inactive: -1.96%"}
{"smiles": "CCOc1ccc(C(=O)N2CCCC(c3nc(-c4cccs4)no3)C2)cc1", "note": "(centres undefined)", "growth rescue (activation)": "inactive: 7.24%"}
{"smiles": "N#Cc1c(-c2ccccc2)nc(SCc2ccc(Cl)cc2)[nH]c1=O", "growth rescue (activation)": "inactive: 3.38%"}
{"smiles": "CCCc1ccc(-c2cc(C(=O)Nc3ccc([N+](=O)[O-])cn3)c3ccccc3n2)cc1", "growth rescue (activation)": "inactive: 6.89%"}
